# Measured values as given in PubChem BioAssay (NCATS).
# “And” between values parts separate entries of the source, which are not always exact repeats. Identical values can stand only once. Inconclusive results, whose numbers are uncertain, are shown with a selection of clear calls. For some assays here: Potencies of inconclusive entries are doubtful fits and often do not repeat. The source made the active and inactive calls. Calls come from the whole dose curve; as a rule, active = well fitted curve in the direction sought with a large enough effect; inconclusive = small, poorly fitted or top-dose-only effect, or another doubt; inactive = no such curve, though single readings can be large; an effect the other way counts as inactive or inconclusive.
# What was measured:
# [1] = Viability qHTS for spleen associated tyrosine kinase inhibitor (SYKi) naive MV4-11 cells (AID 1963823); conditions: MV4-11 AML viability, CellTiter-Glo luminescence, 72 h; viability (% of control): at 45 µM (top of the series); note: nearly all actives have a fitted effect of over 40% in size
# Procedure, shortened: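 CellTiter-Glo luminescence, 10 min room-temperature incubation, gave viability. Cells: naive MV4-11 (500/well), treated 72 hr at 37 C, 5% CO2.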
# [2] = Quantitative highthroughput screen to assess conditional lethalithy of NOMO1 cells grown in RPMI1640 with untreated serum (RPMI+s) (AID 1963876); conditions: NOMO1 AML cells in RPMI+serum, CellTiter-Glo viability, 48 h; viability: at 45.8 µM (top of the series); note: nearly all actives have a fitted effect of over 35% in size;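 for Viability: 100% = DMSO wells and 0% = empty wells without cells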
# Procedure, shortened: (§1)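 Each medium arm—HPLM with 10% dialyzed FBS, or RPMI1640 with 5 mM glucose and 10% untreated or dialyzed FBS—was screened against an 11-point, 3-fold compound titration for 48 h at 37 °C, with CellTiter-Glo luminescence as endpoint.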
# [3] = Quantitative highthroughput screen to assess conditional lethalithy of P12 Ichikawa cells grown in RPMI1640 with dialyzed fetal bovine serum (RPMI+ds) (AID 1963880); conditions: Potency: P12-Ichikawa viability; note: nearly all actives have a fitted effect of over 35% in size;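 for Viability: 100% = DMSO wells and 0% = empty wells on each plate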
# Procedure, shortened: as §1
# [4] = Quantitative highthroughput screen to assess conditional lethalithy of P12 Ichikawa cells grown in RPMI1640 with untreated serum (RPMI+s) (AID 1963881); conditions: Potency: viability; note: nearly all actives have a fitted effect of over 35% in size;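 for Viability: 100% = DMSO wells and 0% = empty wells without cells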
# Procedure, shortened: as §1
# [5] = Quantitative highthroughput screen to assess conditional lethalithy of SEM cells grown in Human Plasma-Like Medium with dialyzed fetal bovine serum (HPLM+ds) (AID 1963882); note: nearly all actives have a fitted effect of over 35% in size
# Procedure, shortened: as §1
# [6] = Quantitative highthroughput screen to assess conditional lethalithy of SEM cells grown in RPMI1640 with unreated serum (RPMI+s) (AID 1963883); conditions: SEM B-ALL cells, CellTiter-Glo viability, 48 h; viability: at 45.8 µM (top of the series); note: nearly all actives have a fitted effect of over 35% in size;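 for Viability: 100% = DMSO wells and 0% = empty wells without cells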
# Procedure, shortened: as §1
# [7] = Quantitative highthroughput screen to assess conditional lethalithy of NOMO1 cells grown in RPMI1640 with dialyzed fetal bovine serum (RPMI+ds) (AID 1963877); note: nearly all actives have a fitted effect of over 30% in size;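 for Viability: 100% = DMSO control wells and 0% = empty wells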
# Procedure, shortened: as §1
# [8] = Quantitative highthroughput screen to assess conditional lethalithy of NOMO1 cells grown in Human Plasma-Like Medium with dialyzed fetal bovine serum (HPLM+ds) (AID 1963878); conditions: NOMO1 AML cells in HPLM+ds, CellTiter-Glo viability, 48 h; viability: at 45.8 µM (top of the series); note: nearly all actives have a fitted effect of over 35% in size
# Procedure, shortened: as §1
# [9] = Quantitative highthroughput screen to assess conditional lethalithy of P12 Ichikawa cells grown in Human Plasma-Like Medium with dialyzed fetal bovine serum (HPLM+ds) (AID 1963879); conditions: Potency: viability; note: nearly all actives have a fitted effect of over 35% in size
# Procedure, shortened: as §1
# [10] = Quantitative highthroughput screen to assess conditional lethalithy of SEM cells grown in RPMI1640 with dialyzed fetal bovine serum (RPMI+ds) (AID 1963884); conditions: SEM B-ALL cells, RPMI+dialyzed FBS, CellTiter-Glo viability, 48 h; viability: at 45.8 µM (top of the series); note: nearly all actives have a fitted effect of over 35% in size;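 for Viability: 100% = DMSO control wells and 0% = empty wells without cells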
# Procedure, shortened: as §1
# [11] = Cellular viability qHTS for adrenocortical cancer (ACC) cell line SW-13 (AID 1963989); conditions: SW-13 ACC cells viability, CellTiter-Glo, 48 h; activity (max response): stronger effect = lower value; note: nearly all actives have a fitted effect of over 65% in size;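 for activity (max response): cells grown in serum-free medium with ITS supplement; % is set by controls: 0 for no effect and ±100 for the full control effect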
# Procedure, shortened: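 Luminescent ATP read-out (CellTiter-Glo, 20 min at room temperature) measured metabolically competent SW-13 cells after 48 h compound treatment. Final concentrations spanned up to 46 uM; bortezomib served as positive control.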
# [12] = Cellular viability qHTS for adrenocortical cancer (ACC) cell line NCI-H295R (AID 1963990); conditions: CellTiter-Glo ATP luminescence, 48 h; activity change, negative = viability loss: at 46.1 µM (top of the series); note: nearly all actives have a fitted effect of over 60% in size;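 for activity change, negative = viability loss: 0% = DMSO only wells and -100% = full killing with cytotoxic reference compound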
# Procedure, shortened: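 IC50 and maximal efficacy derive from four-parameter logistic modelling of titration curves, with reads scaled between DMSO-only wells (0%) and doxorubicin hydrochloride (100% inhibition). Compounds spanned up to 46 uM over 48 h.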
# Potency is the fitted concentration of half-maximal effect; tags give direction and shape of the fitted curve.
smiles,measurement,setting,value
CCCCS(=N)(=O)CCC(N)C(=O)O (stereo not drawn),Potency,[1],active: 24.1 µM
same,Potency,[2],inactive
same,Potency,[3],"inconclusive: 29.6 µM [cytotoxic, single point]"
same,Potency,[4],"inconclusive: 26.4 µM [cytotoxic, single point]"
same,Potency,[5],"inconclusive: 23.5 µM [cytotoxic, partial curve]"
same,Potency,[6],"inconclusive: 20.9 µM [cytotoxic, partial curve, poor fit]"
O=C(c1ccc(OCCN2CCCCC2)cc1)c1c(-c2ccc(O)cc2)sc2cc(O)ccc12,Potency,[1],"inconclusive: 13.3 µM [cytotoxic, partial curve]"
same,Potency,[7],inactive
same,Potency,[8],"inconclusive: 26.4 µM [cytotoxic, single point]"
same,Potency,[9],"inconclusive: 16.6 µM [cytotoxic, single point]"
same,Potency,[3],"inconclusive: 2.35 µM [cytotoxic, partial curve, poor fit]"
same,Potency,[4],"inconclusive: 2.35 µM [cytotoxic, full curve, poor fit]"
same,Potency,[6],inactive
same,Potency,[10],"inconclusive: 0.0743 µM [cytotoxic, full curve, poor fit]"
same,Potency,[11],active: 20.6 µM and active: 25.1 µM
COC(=O)N[C@H](C(=O)N[C@@H](Cc1ccccc1)[C@@H](O)CN(Cc1ccc(-c2ccccn2)cc1)NC(=O)[C@@H](NC(=O)OC)C(C)(C)C)C(C)(C)C,Potency,[1],inactive
same,Potency,[2],inactive
same,Potency,[10],inactive
CCC(C)SSc1ncc[nH]1 (stereo not drawn),Potency,[1],active: 9.34 µM
same,Potency,[2],active: 18.7 µM
same,Potency,[4],active: 18.7 µM
same,Potency,[5],"inconclusive: 18.7 µM [cytotoxic, partial curve, poor fit]"
same,Potency,[6],"inconclusive: 0.833 µM [cytotoxic, full curve, poor fit]"
same,Potency,[10],"inconclusive: 1.05 µM [cytotoxic, full curve, poor fit]"
same,Potency,[11],"inconclusive: 35.5 µM [cytotoxic, single point]"
NC[C@H]1O[C@H](O[C@@H]2[C@@H](O)[C@@H](O[C@H]3O[C@H](CO)[C@@H](O)[C@H](N)[C@@H]3O)[C@H](N)C[C@@H]2N)[C@H](O)[C@@H](O)[C@H]1O,Potency,[1],active: 1.05 µM
same,Potency,[2],inactive
same,Potency,[6],inactive
same,Potency,[10],inactive
same,Potency,[12],inactive
C=Cc1c(C)c2cc3nc(cc4[nH]c(cc5nc(cc1[nH]2)C(C)=C5CCC(=O)O)c(CCC(=O)OC)c4C)[C@@]1(C)C3=CC=C(C(=O)OC)[C@H]1C(=O)OC,Potency,[1],"inconclusive: 5.9 µM [cytotoxic, full curve]"
same,Potency,[2],active: 14.8 µM
same,Potency,[9],inactive
same,Potency,[3],inactive
same,Potency,[10],inactive
same,Potency,[11],"inconclusive: 35.5 µM [cytotoxic, single point]"
same,Potency,[12],"inconclusive: 35.5 µM [cytotoxic, single point]"
CN1CC[C@@H](c2c(O)cc(O)c3c(=O)cc(-c4ccccc4Cl)oc23)[C@@H](O)C1,Potency,[1],active: 0.525 µM
same,Potency,[2],active: 0.469 µM
same,Potency,[9],active: 0.743 µM
same,Potency,[6],active: 0.418 µM
same,Potency,[10],active: 0.469 µM
CC(C(=O)O)c1cccc(C(=O)c2ccccc2)c1 (stereo not drawn),Potency,[1],"inconclusive: 33.5 µM [cytotoxic, single point] and inactive"
same,Potency,[2],inactive
same,Potency,[5],inactive
same,Potency,[6],inactive
same,Potency,[10],"inconclusive: 0.0026 µM [rising, full curve]"
COc1nc(C)nc(Cl)c1NC1=NCCN1,Potency,[1],inactive
same,Potency,[2],inactive
same,Potency,[10],"inconclusive: 2.35 µM [cytotoxic, partial curve, poor fit]"
same,activity (max response),[11],inactive: -1.64%
O=c1cc(-c2cccc3c2Sc2ccccc2S3)oc(N2CCOCC2)c1,Potency,[1],active: 6.51 µM and active: 16.6 µM
same,Potency,[2],inactive
same,Potency,[12],active: 25.1 µM
Cn1c(=O)c(F)c(Nc2ccc(I)cc2F)c2c(=O)n(C[C@@H](O)CO)cnc21,Potency,[1],active: 0.0332 µM
same,Potency,[7],"inconclusive: 0.0264 µM [cytotoxic, full curve]"
same,Potency,[8],"inconclusive: 0.0418 µM [cytotoxic, full curve]"
same,Potency,[9],"inconclusive: 23.5 µM [cytotoxic, partial curve, poor fit]"
same,Potency,[3],"inconclusive: 18.7 µM [cytotoxic, partial curve]"
same,Potency,[4],"inconclusive: 23.5 µM [cytotoxic, partial curve]"
same,Potency,[5],"inconclusive: 0.743 µM [cytotoxic, full curve, poor fit]"
same,Potency,[11],"inconclusive: 0.398 µM [cytotoxic, full curve]"
same,Potency,[12],"inconclusive: 28.2 µM [cytotoxic, single point]"
CC1(C)Cc2c(-c3ccccc3)c(-c3ccc(Cl)cc3)c(CC(=O)O)n2C1,Potency,[1],"inconclusive: 11.6 µM [cytotoxic, partial curve]"
same,Potency,[2],inactive
same,Potency,[4],inactive
same,Potency,[6],inactive
same,Potency,[11],"inconclusive: 35.5 µM [cytotoxic, single point]"
